For 167 variants, self-cleavage results are on record in the RNAGym collection of RNA variant scans (doi:10.1093/nar/gkz1192).

The labels stand for the following.
B1: CPEB3 Ribozyme (parent)
chain: UAACAGGGGGCCACAGCAGAAGCGUUCACGUCGCAGCCCCUGUCAGAUUCUGGUGAAUCUGCGAAUUCUGCUGUAUAUCUC

The source gives no read counts; variants with many changes may rest on few reads.

In the data set the parent is B1. Nature of the data set: self-cleavage, relative activity (ratio to wild type); higher = more cleavage; in vitro, sequencing. In a few lines:
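Libraries of CPEB3 self-cleaving ribozyme mutants came from rounds of error-prone PCR and carried barcodes, which DNA sequencing matched to variants. In vitro transcription used T7 RNA polymerase at 37°C for 5 hours, with a further 15 min in DNase I before EDTA stopped the reaction; the ribozymes cleaved during both steps. The RNA was reverse transcribed with template switching and sequenced on Illumina. Relative activity is the cleaved/total read fraction of a variant divided by that of the unmutated ribozyme, averaged over three batches with at least 5 reads.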
On to G9A A28C C40A, for which the self-cleavage was found to be 0.16.

For G9A A56U U60C, the self-cleavage worked out at 0.06. As for G8U G19A C23A U49C A56U C68U, the figure is 0.04.

As for G8U A20G A64G U66C A75U, the self-cleavage worked out at 0.05. As for G8U A18U U60C, the figure is 0.12; as for G8U C32A U60C, 0.06; as for G8U C37U A57C U60C A65C, 0.09.

As to G8U U43A C62U, the self-cleavage was determined as 0.23. As for G9A A35G G36A U80C, the figure is 0.07; as for G9A A15U U43C A64G, 0.05; as for G8U A47G A64G, 0.36. Take G8U A21G C37U U54A A65C U78C: the self-cleavage was 0.09. In the case of G9A A18U C29U C40U A47G U60C A75U, the self-cleavage was 0.01. As for G8U U26A U72C, the figure is 0.16; as for G9A A15G A28G U41C A56U C62U, 0.23. As to G9A A18G U41C U54G, the self-cleavage was determined as 0.04. As for G8U A21C U49C, the figure is 0.04; as for G9A A28C U43G A75U, 0.07; as for G8U A28U A64G A65G, 0.1. Next, G8U U31C U41C A56G U69C: 0.13; G9A A15U U26C A35U A45G U72C: 0.13.

For the variant G8U G10A U26C A64U U67C, the self-cleavage was 0.05.

As to G9A A13G A20G U60C, the self-cleavage stood at 0.14.

Regarding G8U A18G U80C, the self-cleavage came out at 0.08. G9A A20G G30U G42A U80C: the self-cleavage turned out to be 0.08.

With G9A A15U G55U, the self-cleavage stood at 0.27. Next, G8U U25C G52C U60C U66A U76C: 0.06.

Turning to G9A A20G A28G U43C, the self-cleavage came to 0.04. Next, G9A A18U U25C U60C A64G U74A: 0.06; G8U A21G C23A U69A: 0.11.

Regarding G8U A20G U31C U41C, the self-cleavage came to 0.24. As for G8U U60C A75U, the figure is 0.05; as for G9A A15G A56C A65U U78A, 0.06. With G9A A13U A21G U31C U41C A57G U67C, the self-cleavage is 0.08. Next, G8U A28G U72C U80C: 0.48. Next, G9A C11A A13G A20U U43C U49C U72C: 0.06; G9A A21G U43C U60C C62U U78G: 0.04; G9A A15G U41C U54C: 0.19. As for G8U A57G A64U, the self-cleavage was 0.06. For G9A A20U U78A, the self-cleavage was determined as 0.05. In the case of G8U A45C A64U U80A, the self-cleavage is 0. Next, G9A A15G U58A A64G U80C: 0.09; G9A A15U A28G U67C U69A: 0.13; G9A A18U A21G U49C: 0.07. Regarding G8U U31C A35G C44U, the self-cleavage was 0.05. Next, G8U A21G A35G G53A: 0.11; G9A A15G C17U U31A U58C U78C: 0.05; G9A A18G U26A C32A A35G: 0.23.

Turning to G8U A35U U51C, the self-cleavage is 0.05. Next, G8U U41C A65G C81A: 0.16.

Turning to G8U A56U A57G, the self-cleavage was found to be 0.12. As for G9A A15U U60C U67A U74A U80C, the figure is 0.05. As for G8U A28G U69C, the figure is 0.12. As for G9A A13U A47C A64G, the figure is 0.34. Consider G8U A21G C23A U25G U69A, for which the self-cleavage worked out at 0.05.

Turning to G9A A56G U66G U72C, the self-cleavage was 0.05.

As for G9A A13G U78C, the self-cleavage stood at 0.28.

Take G8U A65U U74C: the self-cleavage stood at 0.06.

On to G8U A28G G55A U80A, for which the self-cleavage amounted to 0.22.

G8U G30A U41G U54G: the self-cleavage was determined as 0.02. On to G9A A20U U43C, for which the self-cleavage was 0.06. For G9A A28U U41G U49C U74G, the self-cleavage was determined as 0.22.

G8U G24A A35G: the self-cleavage came to 0.15. Turning to G9A A18U G33A G52C U54A A64U U69C, the self-cleavage turned out to be 0.09. Regarding G9A A35G U69G, the self-cleavage is 0.49.

In the case of G9A A21G A35U U69C U80C, the self-cleavage was 0.08. G8U U60A U69C U78C: the self-cleavage worked out at 0.06.

In the case of G8U A21U C37A C44U U51A U58C U80A, the self-cleavage came out at 0.03.

On to G9A A13U U54C A65G U76C, for which the self-cleavage turned out to be 0.04. With G9A A45G U54A A56G, the self-cleavage is 0.2. Next, G9A A13G U31C U60C: 0.08.

Consider G8U A20U G33C U72C, for which the self-cleavage was 0.04. As for G9A A45G U67C, the figure is 0.06; as for G8U A64G U74C, 0.06; as for G9A A18C G33A A45U U58C A75U, 0.04. Next, G8U C23U U51A G63U U67C: 0.05; G8U U25C G36C U58C: 0.1; G9A A35C U43A G52A: 0.19. As for G8U U41C U51A G52U, the figure is 0.15. With G9A A20G U43C C50A A65G U67C, the self-cleavage is 0.04. Next, G9A A15G U26C A45G A56G U58C U72G: 0.16. Next, G9A A15U A21G A35U A45C U60C: 0.04; G9A A20U G61C U78C U80C: 0.05; G9A A28U U41C U58C U69C: 0.05. As for G8U A57G A65G, the figure is 0.06.

With G9A A18U C81U, the self-cleavage amounted to 0.25. As for G8U U51A U54C U72C U76C A77G, the figure is 0.06; as for G9A A28U U72A, 0.19. Next, G9A A13G G33C G42A U51C U66A C71U: 0.04. As for G8U A21G A28G U54A U60C C62A U74A, the figure is 0.16; as for G9A A57U A75U, 0.07. Consider G8U C32U A45G A65C, for which the self-cleavage was 0.1. As to G9A A28G A77C, the self-cleavage came to 0.05. In the case of G8U G33A C38A A47G U51G, the self-cleavage was found to be 0.1. On to G8U U41A U49A, for which the self-cleavage turned out to be 0.16.

G8U U25C U26A U72A: the self-cleavage is 0.05. Turning to G8U A28G U43C C50U A56G, the self-cleavage worked out at 0.12.

Take G9A A15G A45G U60A U72G: the self-cleavage turned out to be 0.09. Take G8U G9A A28G U74A: the self-cleavage turned out to be 0.4. For the variant G8U U26C U49A G63C, the self-cleavage is 0.12. In the case of G9A A15G A64U U72A, the self-cleavage was 0.11. Take G8U C23U C32U A35G C38U: the self-cleavage was 0.04. G8U U49C U51C U72C C81G: the self-cleavage was 0.06. As to G9A A15G U43A A45G U49C A65G, the self-cleavage came to 0.05. As for G9A A15U A45U, the figure is 0.09.

Take G9A A13U A47C U49C: the self-cleavage came out at 0.19. As for G9A A28G U60A A77G, the figure is 0.13; as for G8U U49C U76C U78C, 0.12; as for G8U C27A U31C A35U C37U A65C, 0.04. As for G8U U67C C79G, the figure is 0.12; as for G9A A15U A20U C23G U25C A35G U41A, 0.06; as for G9A A45G A57G U69C, 0.14.

Take G8U G30U A64G: the self-cleavage turned out to be 0.05.

Regarding G8U U51A U74C A75G, the self-cleavage worked out at 0.13.

With G8U A21U U72A, the self-cleavage came to 0.06. As for G8U A21U U72C, the figure is 0.21. Next, G8U U31C U80A: 0.05; G8U C32A U51A: 0.05. Next, G9A A18G A35G C39U: 0.11; G8U A18G G63U A64G A75G: 0.05. Regarding G8U A21G C23A U60C U69A, the self-cleavage was found to be 0.04. Next, G8U A21G C23A A45U U69A: 0.05; G9A A15C A18G U51C U60C A64U: 0.04; G9A A18G C40U U41A A45U A57G: 0.21. Take G8U U25A U31C A47G A57U G63U U72C: the self-cleavage was determined as 0.04.

For the variant G8U G53C U54C, the self-cleavage turned out to be 0.18. As for G8U G55C U66A, the figure is 0.05. Next, G8U A21G C23A U43A U69A: 0.17; G8U A35G A77U U80A: 0.11; G9A A15G U54A U78C: 0.14. Regarding G9A A15U U25C C38A, the self-cleavage amounted to 0.15. For G9A A13U U72A, the self-cleavage turned out to be 0.13. Next, G9A A13G A47U U67C: 0.05.

In the case of G8U A35U U43C U60A U76C U80C, the self-cleavage stood at 0.04. For the variant G8U A28G A35G A45G, the self-cleavage came to 0.11. In the case of G9A A45G U48C U51A U54A A57G U76C, the self-cleavage came out at 0.08. As for G9A A35G U66C, the figure is 0.31. On to G8U G24U U25C U48C U58C, for which the self-cleavage is 0.06.

With G8U A18G U31A U43A A47U, the self-cleavage is 0.03.

As for G9A A13U U41C U60C, the self-cleavage was 0.09. As for G9A A18G U25C U69C U78C, the figure is 0.05; as for G8U U25G U48C U54A U58C, 0.03; as for G8U C11G C12U U26C C34A A47U, 0.04.

As for G9A A15G G19U, the self-cleavage amounted to 0.04. On to G8U U41C U48C U60A, for which the self-cleavage came to 0.12.

For the variant G8U U41A U66C U67C U72A, the self-cleavage was found to be 0.11. Next, G9A A15U A21U A47U A56G A64U U74A: 0.06; G9A A13U U31A U51A C68U: 0.04.

Take G9A A18U A35G: the self-cleavage was 0.3. As to G9A A20U U49C, the self-cleavage was determined as 0.17. G8U C14U A18U: the self-cleavage is 0.03. Next, G9A A18G G24A A57G: 0.04; G8U A20G U25A U31A U58C: 0.06; G8U U26C U51C U66G: 0.12. Take G9A A15U A28G U31A U60A U67C: the self-cleavage came out at 0.05. Next, G8U A47U U49C: 0.06. For G9A A20G U54C U67C, the self-cleavage came to 0.14. With G9A A20U G24A A35G U41C U43C G70A, the self-cleavage is 0.05.

Take G9A A35U U51C U78C: the self-cleavage was determined as 0.05.

Regarding G9A A35G U49C U51G U66C U74C, the self-cleavage stood at 0.07.

Consider G8U A21G U49C, for which the self-cleavage is 0.2.

Consider G8U A20G C29G U48C A56G U67C, for which the self-cleavage amounted to 0.11. Consider G9A A18G A56G, for which the self-cleavage was determined as 0.25.

Consider G9A A20G A35U U43C U49A U78C, for which the self-cleavage came to 0.2.

On to G8U C12A C59A U72G, for which the self-cleavage came out at 0.06. As for G8U U26A U31C A47C C59A C71U, the figure is 0.04; as for G8U C11G U31C U54C, 0.21.
